# The campaign covered roughly 310,000 compounds. About 18,000 (5.8%) were called active. Inconclusive means that the source gave no clear call. Such entries were picked first, then a sample of the others. Calls come from the whole dose curve; as a rule, active = well fitted inhibition curve with a large enough effect; inconclusive = small, poorly fitted or top-dose-only effect, or another doubt; inactive = no such curve, though single readings can be large or run the other way. Potencies of inconclusive entries are left out as doubtful fits.
# Experiment: Primary qHTS for delayed death inhibitors of the malarial parasite plastid, 48 hour incubation
# Conditions: P. falciparum luciferase growth in erythrocytes; series mostly up to 28.7 µM
# In short: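 Parasite viability was followed by luminescence of a genomically integrated firefly luciferase. Cultures held 0.1% parasitemia at 2% hematocrit (final), incubated under 5% CO2 at 37 C.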
# Potency is the fitted concentration of half-maximal effect; tags give direction and shape of the fitted curve.
row,SMILES,Potency
1,COc1ccc(-c2csc(-c3ccccc3)n2)c(OC)c1,inactive
2,COc1ccc(Cn2ccnc2SCC(=O)Nc2ccccc2)cc1,inactive
3,Cn1c(=O)c2ccccc2n(Cc2cccc(F)c2)c1=O,inactive
4,COc1ccc(-c2onc(C)c2-c2cnn(-c3ccccc3)c2)c(O)c1,active: 11.7 µM
5,CCC(C)n1c(-c2cccs2)nc2nc3ccccc3nc21 (stereo not drawn),"inconclusive [inhibitor, partial curve]"
6,Cc1ccc(OCC(=O)NC(C)c2ccccc2)cc1 (stereo not drawn),inactive
7,C/C(N)=C(/C#N)C(=O)CSc1nc2ccccc2c(=O)n1-c1ccccc1C,"inconclusive [inhibitor, partial curve]"
8,Cc1cccc(C)c1NC(=O)CN1CCN(C(=O)CNC(=O)c2ccc(N3CCCC3=O)cc2)CC1,"inconclusive [inhibitor, single point]"
9,Cc1cc(N2CCN(c3nc(-c4ccccc4)cs3)CC2)c2ccccc2n1,"inconclusive [inhibitor, single point]"
10,COc1cc2c(c(O)c1OC)-c1c(cc(OC)c(OC)c1OC)C[C@@H](C)[C@@H](C)C2,active: 13.1 µM
11,Cc1csc(-c2cccnc2)n1,inactive
12,Cc1ccc(Nc2nnc(SCC(=O)Nc3ccc(S(=O)(=O)N4CCOCC4)cc3)s2)cc1,inactive
13,COc1cc2c(cc1NC(=O)CCC(=O)O)oc1ccccc12,inactive
14,CCOC(=O)C1=C(COC(=O)c2cc(OC)c(OC)c(OC)c2)NC(=O)NC1C (stereo not drawn),"inconclusive [inhibitor, single point]"
15,COC(=O)c1ccc(OCCCCN(C)Cc2ccccc2)cc1,inactive
16,Cc1nc(SCC2(C)CC2(Cl)Cl)n[nH]1 (stereo not drawn),inactive
17,CCc1cc(=O)oc2c(C)c(OCC(=O)NC3CC(C)(C)NC(C)(C)C3)ccc12,"inconclusive [inhibitor, single point]"
18,COc1ccc([C@]23Cc4ccccc4C(O2)C2=C(CCCC2=O)O3)cc1,inconclusive [inhibitor]
19,CN(C)c1ccc(/C=C(/C(=O)c2ccc(Cl)cc2Cl)n2cncn2)cc1,"inconclusive [inhibitor, partial curve, poor fit]"
20,CN(/N=C/c1ccc(Cl)cc1Cl)c1ncc(Cl)cc1C(F)(F)F,"inconclusive [inhibitor, partial curve, poor fit]"
21,COc1ccc([N+](=O)[O-])cc1N(CC(=O)NC1CCCC1)S(C)(=O)=O,inactive
22,Cc1cccc(N2CCN(S(=O)(=O)c3ccc4c(c3)CC(=O)N4C)CC2)c1C,active: 9.28 µM
23,C/C=C/C(=O)Nc1cccc(C2=NOC3(C2)C[C@@H](C(N)=O)N(C(=O)c2cc([N+](=O)[O-])cc([N+](=O)[O-])c2C)C3)c1 (stereo partly drawn),"inconclusive [inhibitor, single point]"
24,CC(=O)N[C@@H](Cc1c[nH]c2ccccc12)C(=O)OCC(=O)Nc1ccc(S(=O)(=O)N(C)C)cc1,inactive
25,O=C(CCc1nnc(CCCCc2ccccc2)o1)NCCc1cccnc1,inactive

row,SMILES,Potency
1,COc1cc2c(cc1OC)C(c1ccc(-c3ccc(Cl)cc3Cl)o1)=NCC2,"inconclusive [inhibitor, partial curve, poor fit]"
2,COC(=O)C1=C(C)N(C)C(C)=C(C(=O)OC)C1c1ccc(Cl)cc1,"inconclusive [inhibitor, single point]"
3,C=C(C)Cn1c(SCC(=O)N/N=C/c2c(O)ccc3ccccc23)nc2ccccc2c1=O,inactive
4,Cc1ccc(S(=O)(=O)N2CCN(C(=O)C3CC3C)CC2)c(C)c1 (stereo not drawn),"inconclusive [inhibitor, single point]"
5,COc1cccc(-n2c(SCC(=O)Nc3cc(C)on3)nc3c([nH]c4ccccc43)c2=O)c1,"inconclusive [inhibitor, partial curve, poor fit]"
6,COc1ccc2oc(=O)c(C(=O)Oc3ccc(NC(C)=O)cc3)cc2c1,inactive
7,Cc1cc(C)cc(N(CCC#N)C(=O)CSC2=Nc3ccccc3C3CC=NN23)c1 (stereo not drawn),active: 13.1 µM
8,O=C(NCCc1csc(-c2cccnc2)n1)c1cccc2ccccc12,"inconclusive [inhibitor, single point]"
9,CC(=O)Nc1c(Nc2ccccc2)c2ccccc2oc1=O,inactive
10,C=CCn1c(=O)c(C(=O)NCCc2ccccc2)c(O)c2ccccc21,"inconclusive [inhibitor, single point]"
11,O=C1CCC(=O)N1CCc1c[nH]c2ccccc12,"inconclusive [inhibitor, partial curve, poor fit]"
12,c1ccc(C(Cc2nc(-c3ccccn3)no2)c2ccccc2)cc1,"inconclusive [inhibitor, single point]"
13,COc1ccc(Br)cc1C(=O)Nc1ccc(N2CCN(S(C)(=O)=O)CC2)cc1,"inconclusive [inhibitor, single point]"
14,CN=C(Nc1ccccc1)SC1CC(=O)N(c2cccc(OC)c2)C1=O (stereo not drawn),"inconclusive [inhibitor, single point]"
15,O=C(N/N=C/c1cccc(OCC(=O)N2CCCC2)c1)C(=O)Nc1ccccc1F,inactive
16,CCCCc1noc(-c2c(-c3ccccc3Cl)noc2C)n1,"inconclusive [inhibitor, single point]"
17,CCN1CC(CN(C)Cc2cn(-c3cccc(C)c3)nc2-c2cccc(F)c2)CC1=O (stereo not drawn),"inconclusive [inhibitor, partial curve, poor fit]"
18,Cc1ccc(S(=O)(=O)C2(C(=O)N3CCCCCC3)CC2)cc1,inactive
19,Cc1cccc(NC(=S)NCCC(c2ccccc2)c2ccccc2)c1,"inconclusive [inhibitor, single point]"
20,CC(=O)N(c1ccccc1C)C1CCCC1,inactive
21,CS(=O)(=O)c1ccc(C(=O)N2CCN(C(=O)c3ccco3)CC2)cc1,inactive
22,COc1ccc(C2CC(=O)OC3=C2C(=O)CC(C)(C)C3)c(OC)c1 (stereo not drawn),active: 10.4 µM
23,O=S(=O)(Nc1ccccn1)c1ccc(-n2cccn2)cc1,inactive
24,Cc1ccc(N=Cc2c(O)ccc3ccccc23)cc1F,inactive
25,Cc1cc(C)n(-c2cc(N3CCN(S(=O)(=O)c4ccc(Br)cc4)CC3)ccc2[N+](=O)[O-])n1,"inconclusive [inhibitor, single point]"

row,SMILES,Potency
1,CCC1=NN(C(=O)C(=O)Nc2ccc(Br)cc2)C(O)(C(F)(F)F)C1 (stereo not drawn),"inconclusive [inhibitor, partial curve, poor fit]"
2,CCN(CC)CCCN(C(=O)c1ccco1)c1nc(-c2ccc(C)cc2)cs1,"inconclusive [inhibitor, full curve, poor fit]"
3,COc1cccc(-c2c(-c3cc(OC)cc(OC)c3)n(C)c3ccc(-c4cccc5[nH]ccc45)cc23)c1,active: 1.85 µM
4,CC(C)C[C@H](NC(=O)[C@@H]1O[C@H]1C(=O)O)C(=O)NCCCCN=C(N)N,active: 11.7 µM
5,Cc1nc(N2CCN(C(=O)c3ccco3)CC2)nc2c1C(=O)CCC2,inactive
6,Cc1nn2c(C)c(C(=O)Nc3ccccc3)cnc2c1-c1ccccc1,"inconclusive [inhibitor, single point]"
7,OCc1cnc[nH]1,"inconclusive [inhibitor, partial curve, poor fit]"
8,CCCOc1ccc(C(F)(F)F)cc1NS(=O)(=O)c1ccc(Cl)nc1,"inconclusive [inhibitor, single point]"
9,Cn1c(/C(C#N)=C/c2ccc(-c3ccc(S(N)(=O)=O)cc3)o2)nc2ccccc21,"inconclusive [inhibitor, single point]"
10,CC[C@@H]1CC=C[C@H]2[C@H]1C(=O)N(Cc1ccccc1)[C@H]2c1cc(C)ccc1F,"inconclusive [inhibitor, single point]"
11,CCCCCc1nc2sc3c(c2c(=O)n1NC(=O)c1ccc([N+](=O)[O-])cc1)CC(C)(C)OC3,inactive
12,COc1ccc2c(c1)C=C(CN1CCC(CO)(CCc3ccccc3)CC1)CO2,"inconclusive [inhibitor, single point]"
13,O=C(CSc1nnc(-c2ccccn2)n1Cc1ccco1)Nc1ccc2c(c1)OCO2,inactive
14,O=C(COC(=O)c1ccc(=O)[nH]c1)Nc1cccc(S(=O)(=O)N2CCOCC2)c1,"inconclusive [inhibitor, single point]"
15,CN(C)CCCn1cnc2c1c(=O)[nH]c(=O)n2Cc1ccccc1,inactive
16,Cc1cc2nc3n(c2cc1C)CCCN3,"inconclusive [inhibitor, single point]"
17,O=C(CN(c1cccc(C(F)(F)F)c1)S(=O)(=O)c1ccc(Cl)c([N+](=O)[O-])c1)NCc1ccccc1Cl,"inconclusive [inhibitor, partial curve, poor fit]"
18,CC(=O)N1CCC(=O)N(C(C)C)c2ccccc21,inactive
19,COc1ccc(C(=O)NCCSCc2ccccc2C)cc1,"inconclusive [inhibitor, partial curve]"
20,COc1ccccc1C(CC(=O)Nc1ccccc1C)c1ccc(OC(C)C)cc1 (stereo not drawn),active: 14.7 µM
21,CCOC(=O)N1CCC(NC(=O)c2cc3cc4cc(OC)ccc4nc3o2)CC1,active: 2.94 µM
22,O=C(C1=C[C@H](c2ccc(Br)cc2)C[C@H](OCCCCO)O1)N1CCN(Cc2ccc3c(c2)OCO3)CC1,active: 1.47 µM
23,CC(Sc1nnc(Nc2ccccc2F)s1)C(=O)NC1CC1 (stereo not drawn),"inconclusive [inhibitor, single point]"
